# Hit rate of the full screen: of about 370,000 compounds, about 150 (0.041%) were called active. The shares of active, inactive and inconclusive entries below differ from those in the screen. Calls follow the shape of the dose curve; as a rule, active = well fitted inhibition curve with a large enough effect; inconclusive = small, poorly fitted or top-dose-only effect; inactive = flat fitted curve, though single readings scatter. No potency is given beside an inconclusive call; the fits are too rough.
# Biological target: Beta-lactamase (Escherichia coli (strain K12)) (UniProt P00811)
# Sequence of UniProt P00811 (P00811 whole entry, looked up): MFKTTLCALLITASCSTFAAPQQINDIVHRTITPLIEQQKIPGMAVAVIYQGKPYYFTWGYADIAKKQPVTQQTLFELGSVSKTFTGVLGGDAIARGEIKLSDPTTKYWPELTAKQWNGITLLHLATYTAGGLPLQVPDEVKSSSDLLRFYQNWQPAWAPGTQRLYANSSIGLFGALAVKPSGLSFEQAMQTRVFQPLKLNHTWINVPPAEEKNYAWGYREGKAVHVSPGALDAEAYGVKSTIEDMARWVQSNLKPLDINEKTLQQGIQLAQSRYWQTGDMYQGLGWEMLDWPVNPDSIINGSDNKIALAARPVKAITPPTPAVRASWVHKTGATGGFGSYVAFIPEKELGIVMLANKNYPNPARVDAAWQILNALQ
# Test: qHTS Inhibitors of AmpC Beta-Lactamase (assay with detergent); also: nearly all actives have a fitted effect of over 25% in size;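 as to activity change, negative = inhibition: 0% = no-compound wells and -100% = no-enzyme wells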
# Conditions: AmpC hydrolysis of nitrocefin, absorbance 480 nm, 0.01% Triton; activity change, negative = inhibition: at 114 µM (top of the series)
# How it was run: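 AmpC (5.3 nM in the dispensed reagent) in 20 mM phosphate pH 7.0 with 0.01% (detergent screen) or 0.0001% Triton X-100 was preincubated with compounds for 15 min at room temperature. Nitrocefin was then added from an 800 uM solution, and hydrolysis was followed at 480 nm.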
# Potency is read from the fitted curve at half-maximal effect; tags tell the direction and shape of the fitted curve.
SMILES,Potency,"activity change, negative = inhibition"
Cc1ccc(C)c(NC2=CC(=O)CC(C)(C)C2)c1C#N,"inconclusive [inhibitor, full curve]",–
O=C(Nc1cc(Cl)ccc1Cl)N1CCCC1,–,inactive: -0.958%
COc1cc(C(N)=O)cc(Cl)c1OCc1ccccc1,"inconclusive [inhibitor, partial curve]",–
CC(C)c1ccc(C(=O)NCc2ccc(Cl)cc2)cc1,–,inactive: 1.56%
Cc1ccc(C(c2ccc(C)o2)c2cccc([N+](=O)[O-])c2O)o1,–,inactive: -5.46%
N#Cc1c(N)c(C(=O)c2ccc(Br)cc2)n2c1CCC2,"inconclusive [inhibitor, full curve, poor fit]",–
O=C(NOCc1ccccc1)c1ccc(Cl)cc1Cl,"inconclusive [inhibitor, full curve, poor fit]",–
CN(C(=O)CSc1nnc(N)s1)C1CCCCC1,"inconclusive [inhibitor, full curve]",–
CC(=O)N/C(=C\c1ccccc1)C(=O)OCC(=O)c1ccc(F)cc1,"inconclusive [inhibitor, partial curve, poor fit]",–
COC(=O)c1ccc(-c2nc3cc(N)ccc3o2)cc1,–,inactive: -5.95%
Cc1ccc(CCN2C(=O)CCC2(C)C(=O)NC2CCCC2)cc1 (centres undefined),"inconclusive [inhibitor, full curve, poor fit]",–
CCN(CC)c1nc2n(c(=O)n1)CCN2CC,"inconclusive [inhibitor, full curve, poor fit]",–
COCCCNC(=O)CCCn1c(=O)c2ccccc2n(CC(=O)Nc2c(C)cc(C)cc2C)c1=O,"inconclusive [inhibitor, full curve, poor fit]",–
COc1ccc(-n2nc3c(c2NC(=O)c2ccc(Br)o2)CS(=O)(=O)C3)cc1,–,inactive: -12.8%
COc1ccc(N2Cc3ccccc3C2)cc1Cl,"inconclusive [inhibitor, full curve, poor fit]",–
Cc1cc(C)n(C(=O)c2cccc([N+](=O)[O-])c2)n1,"inconclusive [inhibitor, full curve, poor fit]",–
CCN1CCN(c2cc(C)c3cc(NC(=O)Cc4ccc(OC)c(OC)c4)ccc3n2)CC1,"inconclusive [inhibitor, full curve]",–
CCN(CC)S(=O)(=O)c1ccc(/C=C/C(=O)OCC(=O)N(C)C)cc1,"inconclusive [inhibitor, partial curve]",–
CCCN(CCC)C(=O)Cn1c(SCc2cccc(F)c2)nc2cccnc21,–,inactive: -3.25%
O=C(CN1C(=O)NC2(CCCC2)C1=O)N1CCN(C(=O)c2ccco2)CC1,"inconclusive [inhibitor, partial curve, poor fit]",–
CCOc1ccc(C2/C(=C(\O)c3cccc(OC)c3)C(=O)C(=O)N2c2cc(C)on2)cc1OC (centres undefined),"inconclusive [inhibitor, full curve, poor fit]",–
O=C(N/N=C/c1ccc(Br)s1)c1ccccn1,–,inactive: -7.7%

SMILES,Potency,"activity change, negative = inhibition"
CCCOc1ccc2c(CC)cc(=O)oc2c1C,–,inactive: -0.501%
CC1=NNC(=O)C1CCC(=O)N/N=C/c1ccco1 (centres undefined),–,inactive: 2.97%
CC1=C(C(=O)OCCOc2ccccc2)C(c2ccc(C)o2)C2=C(CC(C)(C)CC2=O)N1 (centres undefined),"inconclusive [inhibitor, full curve, poor fit]",–
Cc1cc(NC(=O)COC(=O)C2CC2)ccc1Br,"inconclusive [inhibitor, single point]",–
CC(NC(=O)NC1CCCCC1)C(c1cccs1)N1CCN(C)CC1 (centres undefined),"inconclusive [inhibitor, full curve]",–
Cc1cc(-c2ccccc2)nc(N/N=C/c2cccnc2)n1,–,inactive: -2.7%
COCCN(Cc1cc2cc(C)ccc2nc1Cl)C(=O)Nc1ccccc1C,"inconclusive [inhibitor, single point]",–
CCOc1ccccc1/C=N/N1CCN(Cc2ccccc2)CC1,"inconclusive [inhibitor, partial curve, poor fit]",–
Cc1c(Cl)cccc1-n1c(-c2cccnc2)n[nH]c1=S,–,inactive: 7.51%
CCOC(=O)CN(C(=O)CSc1nnc(CNc2ccc(C)cc2C)o1)c1ccccc1,"inconclusive [inhibitor, partial curve, poor fit]",–
CCOc1ccc(-n2c(-c3ccccc3)c[n+]3c2CCCCC3)cc1,–,inactive: -15.1%
COc1cccc(C(=O)Nc2c(C(N)=O)oc3ccccc23)c1,"inconclusive [inhibitor, full curve]",–
COc1cccc(OC)c1C(=O)NNS(=O)(=O)c1ccc2ccccc2c1,"inconclusive [inhibitor, partial curve, poor fit]",–
CCOC(=O)c1cnc(-c2ccccc2)nc1Oc1cccc(Cl)c1,"inconclusive [inhibitor, partial curve]",–
CCC1CCCCN1C(=O)c1cc2c(=O)n3cccc(C)c3nc2s1 (centres undefined),"inconclusive [inhibitor, full curve, poor fit]",–
COc1ccccc1-c1ccc(Nc2ccc(C(=O)N3CCOCC3)cc2)nn1,"inconclusive [inhibitor, partial curve, poor fit]",–
COc1ccccc1C(=O)NCC(=O)OCC(=O)c1cccc2ccccc12,"inconclusive [inhibitor, full curve, poor fit]",–
COc1ccc(CCNC(=O)CSc2ccc(-c3ccccc3)nn2)cc1,"inconclusive [inhibitor, full curve, poor fit]",–
CC(=O)n1c2ccccc2c2nc3ccccc3nc21,–,inactive: -15.4%
O=C(C1CCC(Cn2c(=S)[nH]c3ccccc3c2=O)CC1)N1CCN(c2ccccn2)CC1 (centres undefined),"inconclusive [inhibitor, single point]",–
O=S(=O)(c1cccnc1)N1CCn2cccc2C1c1ccccc1F (centres undefined),"inconclusive [inhibitor, full curve, poor fit]",–
O=C(Cc1ccc(Br)cc1)NCc1ccccc1,"inconclusive [inhibitor, full curve, poor fit]",–

# Reference: PubChem BioAssay AID485294 (National Center for Advancing Translational Sciences (NCATS), 2010)
